# From the supplement of paper PMC10126150
# Values marked as one replicate rest on one cluster of the flow cell; about a third of the high ones do not repeat.
# Tested on: ATP
# Assay: switch fluorescence ratio, 500 uM ATP over buffer (Cy3 cluster intensity, sum of 5 cycles each) (fold (ratio)); higher = stronger signal-on switching upon ATP binding; sequences stand for … in TCGTCGGCAGCGTCAGATGTGTATAAGAGACAGTTTTTTTTTTTTTTTTTTTTTTTTT…TC
# Details: aptamer strand: ATP DNA aptamer (quencher-CACCTGGGGGAGTATTGCGGAGGAAGG + anchor), 100 nM annealed; ATP concentration: 500 uM; one replicate
# Outline: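 The fluorescence ratio divides summed target-cycle Cy3 intensity by summed buffer-cycle Cy3 intensity for each cluster and is averaged per switch-domain sequence. Cy3-labelled switching-strand clusters on a modified Illumina MiSeq flow-cell were annealed to 100 nM quencher-labelled ATP aptamer, then imaged in selection buffer and again after 15 min with 500 uM ATP at 22 °C. Five such cycles were run, with NaOH stripping and re-annealing between them, and clusters outside 100-1000 RFU were excluded.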
# 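Also: ATP exposure 15 min at 22 °C before imaging.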
row,Sequence,switch fluorescence ratio
1,TAGCTTAAGT,0.995
2,TAGCTTGTGA,1.02
3,TAGGAATACA,1.42
4,TAGGAATCAT,0.982
5,TAGGACGGGA,1.01
6,TAGGACTAC,1.06
7,TAGGACTTT,1.03
8,TAGGAGCCTG,1.03
9,TAGGAGTTTA,0.987
10,TAGGATCTGT,0.969
11,TAGGATGGAA,0.969
12,TAGGATTTCG,0.974
13,TAGGCAAAGG,1
14,TAGGCATCGG,0.981
15,TAGGCCACGT,1
16,TAGGCGCCAC,1.01
17,TAGGCGGCGC,1
18,TAGGCTGGAC,1.02
19,TAGGCTTAC,1.16
20,TAGGGCCCAC,1.05
21,TAGGGCCGCG,1.02
22,TAGGGCCGTA,1.03
23,TAGGGCGCAC,1.04
24,TAGGGCGCCC,0.968
25,TAGGGGTGTG,1.02
26,TAGGGTACAA,1.04

row,Sequence,switch fluorescence ratio
1,TAGGGTAGG,1.03
2,TAGGGTGCCC,0.968
3,TAGGTACACC,1.06
4,TAGGTACTGT,1.03
5,TAGGTCAGCG,1.01
6,TAGGTCCGGT,0.995
7,TAGGTCTGTA,1.03
8,TAGGTGACG,1.05
9,TAGGTGTCTC,0.969
10,TAGGTTATGG,0.943
11,TAGGTTCAGG,1.02
12,TAGTAAGAAG,0.996
13,TAGTACAATC,0.983
14,TAGTACCTAT,1.05
15,TAGTACTAAT,0.982
16,TAGTACTCTT,1.04
17,TAGTACTGAG,1.08
18,TAGTAGAACA,1.06
19,TAGTAGAGGC,0.924
20,TAGTAGCTCC,1.2
21,TAGTAGTGT,1
22,TAGTAGTTGG,0.994
23,TAGTATAGGT,1.03
24,TAGTATCACG,1.01
25,TAGTATGAAG,1.2
26,TAGTATTGAT,0.998

row,Sequence,switch fluorescence ratio
1,TAGTCACTGT,1.06
2,TAGTCAGTCC,1
3,TAGTCCTGGG,1.03
4,TAGTGACACA,0.974
5,TAGTGAGCC,0.971
6,TAGTGATGCT,0.948
7,TAGTGCAGCA,0.984
8,TAGTGCCAGC,1.02
9,TAGTGGCGAA,0.994
10,TAGTGGTACC,0.956
11,TAGTTAGGTC,0.991
12,TAGTTCGCCG,1
13,TAGTTGAGAG,1.01
14,TAGTTGTG,0.968
15,TAGTTGTGAA,0.993
16,TATAAAAGA,1.02
17,TATAAAGAAG,1.03
18,TATAAATACG,1
19,TATAAATTAT,1.05
20,TATAAGGACG,0.955
21,TATAAGGTGG,0.996
22,TATAATTTGC,1.07
23,TATACAGCGG,0.994
24,TATACAGTGG,1.07
25,TATACATACA,1.35
26,TATACATCCG,1.06

row,Sequence,switch fluorescence ratio
1,TATACGAGCC,1.51
2,TATACTAAAT,0.963
3,TATACTGGTA,1.02
4,TATACTTTGT,0.968
5,TATAGACATC,1.04
6,TATAGCCTTT,1.02
7,TATAGCTTCT,1.07
8,TATAGGAGAA,0.979
9,TATAGGAGGA,1.01
10,TATAGGAGTG,0.921
11,TATAGGTAAG,0.97
12,TATAGTAC,1.03
13,TATAGTCTAC,0.997
14,TATAGTGTAT,1.05
15,TATATCCGA,1
16,TATATCGACA,0.974
17,TATATGGACG,0.975
18,TATATGTTCC,1.02
19,TATATTCAAG,0.958
20,TATATTTATC,0.953
21,TATATTTATT,0.982
22,TATATTTTGA,0.996
23,TATCAAATCG,1.02
24,TATCAACGCG,1.01
25,TATCAAGACA,1.01
26,TATCAAGCAT,1.02

row,Sequence,switch fluorescence ratio
1,TATCAAGGTC,1.01
2,TATCAGCGG,0.994
3,TATCAGTTTG,0.986
4,TATCCAGGGC,1.03
5,TATCCGAAAA,1
6,TATCCGCCCG,1.2
7,TATCCGGGGC,1.04
8,TATCCGGGTT,1.02
9,TATCCTGTGG,0.963
10,TATCCTTCCA,1.35
11,TATCGACAGC,1.04
12,TATCGATAGC,1.03
13,TATCGCCGTG,1.07
14,TATCGCGGAT,0.987
15,TATCGGCCAA,1
16,TATCGGTGGT,1.34
17,TATCGTCTCT,1.01
18,TATCGTGGCG,0.973
19,TATCTAAAGC,0.987
20,TATCTAGAAT,1.02
21,TATCTAGATC,1.04
22,TATCTCTATA,0.936
23,TATCTCTCG,0.958
24,TATCTCTGT,1.04
25,TATCTGAGTA,1.01
26,TATCTGCGT,1.02

row,Sequence,switch fluorescence ratio
1,TATCTGCGTA,1.02
2,TATCTGCTA,1.09
3,TATCTTAACT,1.07
4,TATCTTGCTA,0.987
5,TATCTTTCGT,1.02
6,TATGAACAGG,1.05
7,TATGAAGGTG,2.13
8,TATGAATGGC,0.957
9,TATGAATTTT,0.977
10,TATGACACAG,0.968
11,TATGACACGT,0.995
12,TATGACGTAA,1.07
13,TATGAGAGT,0.997
14,TATGAGCGAA,0.994
15,TATGAGGGTA,0.969
16,TATGAGGTGT,1.08
17,TATGAGTCCT,0.959
18,TATGCAAG,1.07
19,TATGCAAGTG,1.06
20,TATGCACGGC,1.07
21,TATGCACTGG,1.06
22,TATGCGGCAA,1.26
23,TATGCGTATT,0.991
24,TATGCGTTAC,2.74
